Measured values as given in PubChem BioAssay AID1159614 (National Center for Advancing Translational Sciences (NCATS), 2016).
The campaign covered roughly 45,000 compounds. About 65 (0.1%) were called active. Calls follow the shape of the dose curve; as a rule, active = well fitted activation curve with a large enough effect; inconclusive = small, poorly fitted or top-dose-only effect; inactive = no such curve, though single readings can be large or run the other way. The list shows a part of the results.

Target: Galactocerebrosidase (Homo sapiens) (UniProt P54803)
Test: A Novel Cell-Based Assay to Identify Small Molecules for B -Galactocerebrosidase; also: 0% is about no effect; nearly all actives have a fitted effect of over 65% in size
Conditions: 145M-Twi-hGALC-G270D cells (Twitcher mouse brain line with human GALC G270D), HMU-beta-Gal fluorescence, 48 h; series mostly up to 57.5 µM; activation: at the top concentration
Method in brief: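 Mutant human GALC (G270D), stably expressed in a Twitcher mouse brain cell line lacking endogenous GALC, is measured in live-treated cells via 6-hexadecanoylamino-4-methylumbelliferyl-β-galactoside hydrolysis (0.1 mM final, pH 5.2) with fluorescent detection.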

UniProt P54803, sequence (P54803 whole entry, looked up): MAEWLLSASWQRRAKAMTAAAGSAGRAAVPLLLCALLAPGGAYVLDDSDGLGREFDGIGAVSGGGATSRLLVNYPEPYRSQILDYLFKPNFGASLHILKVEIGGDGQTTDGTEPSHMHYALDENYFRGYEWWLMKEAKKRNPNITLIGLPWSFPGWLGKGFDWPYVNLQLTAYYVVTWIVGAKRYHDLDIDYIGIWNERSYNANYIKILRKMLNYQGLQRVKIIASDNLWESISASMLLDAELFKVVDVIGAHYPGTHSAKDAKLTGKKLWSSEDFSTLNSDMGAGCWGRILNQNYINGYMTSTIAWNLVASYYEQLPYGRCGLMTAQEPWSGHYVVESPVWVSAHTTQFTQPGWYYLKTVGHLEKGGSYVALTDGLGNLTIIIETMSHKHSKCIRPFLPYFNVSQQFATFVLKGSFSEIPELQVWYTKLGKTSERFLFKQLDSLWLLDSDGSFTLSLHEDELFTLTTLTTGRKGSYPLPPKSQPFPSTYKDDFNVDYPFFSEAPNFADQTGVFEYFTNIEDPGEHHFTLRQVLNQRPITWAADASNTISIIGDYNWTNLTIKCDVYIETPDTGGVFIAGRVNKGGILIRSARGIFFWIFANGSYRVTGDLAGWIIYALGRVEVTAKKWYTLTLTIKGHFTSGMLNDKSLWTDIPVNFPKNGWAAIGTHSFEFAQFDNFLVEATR

activation, inactive:
O=C(Cn1c(=O)n(Cc2ccco2)c(=O)c2oc3ccccc3c21)Nc1ccc(F)cc1F -13.1%
Cc1cn2c(=O)cc(COc3ccc(NC(=O)c4cccc(F)c4)cc3)nc2s1 4.27%
Cc1nn(CCCC(=O)Nc2ccccc2C(F)(F)F)c(=O)c2c1sc1ccccc12 -7.07%
CN(C)CCN(Cc1ccco1)S(=O)(=O)c1cc2c(cc1Cl)NC(=O)CO2 -9.03%
COc1ccccc1CCNC(=O)CCc1c(C)c2cc3c(C)coc3c(C)c2oc1=O -8.73%
O=C(NCCO)C(=O)Nc1c2c(nn1-c1ccc(F)cc1)CSC2 -5.04%
Cn1c(=O)n(C)c2cc(NS(=O)(=O)c3ccccc3)c(NCc3ccccc3)cc21 -15.2%
COc1cccc(NC(=O)Nc2cc(-c3cn4cccnc4n3)ccc2C)c1 -13.1%
CCC(Sc1nnc(C)n2c1cc1occc12)C(=O)Nc1ccccc1F (stereo not given) -9.01%
CCN(CC)C(=O)Cn1cc(SCC(=O)Nc2cccc(C)c2)c2ccccc21 -17%
COCc1cc(C)n(CC(=O)Nc2ccc(NC(C)=O)cc2)c(=O)c1C#N -16.8%
CC(C)OCCCN(Cc1ccco1)C(=O)c1cc2c(s1)-c1ccccc1OC2 -9.22%
CC(C)Oc1ccc(CNC(=O)C2CCN(C(=O)c3sccc3-n3cccc3)CC2)cc1 -11%
COc1ccccc1CNC(=O)CN1C(=O)CSc2ccc(S(=O)(=O)N3CCCC3)cc21 -20.6%
Cc1ccc(-c2noc(CNC(=O)c3ccc(C(C)(C)C)cc3)n2)cc1 -11.3%
Cc1ccc(Cl)cc1NC(=O)N1CCN(C)c2ncccc21 -12.4%
Cc1cccc(C(=O)N2CCc3cc(CNC(=O)CCc4ccccc4)ccc32)c1 -6.59%
COc1ccc(N2CCN(c3cc(C)nc4nc(-c5ccc(C)cc5)nn34)CC2)cc1 -3.77%
CC1=C(C#N)C(NC(=O)c2cccc(Cl)c2)(C(F)(F)F)C(=O)N1 (stereo not given) -10.5%
Cc1cccc(C)c1-n1ncc(C(=O)Nc2ccc3c(c2)OCCO3)c1C1CCN(C(=O)OC(C)(C)C)CC1 -36.6%
COc1ccc(Nc2c(-c3cc(Br)ccc3O)nc3ncccn23)cc1OC -13.2%
CCc1cc2c(cc3c(=O)n(CC(=O)N4CCN(c5cc(Cl)ccc5C)CC4)ncn32)s1 -8.79%
O=C(CSc1ncc2c(n1)-c1ccccc1N(Cc1ccc(F)cc1)S2(=O)=O)c1ccc(Cl)cc1 -2.89%
CCOCCOC(=O)c1ccc(NC(=O)/C=C/c2ccc(OC)c(OC)c2)cc1 -14%
Cc1ccc(S(=O)(=O)c2cn(C)c3cc(N4CCN(C)CC4)c(F)cc3c2=O)cc1 -4.05%
CNS(=O)(=O)c1ccc(OC)c(-c2nnc3c4ccccc4c(C)nn23)c1 -13.8%
COc1ccccc1N1CCN(S(=O)(=O)c2c(C)sc3ncn(CC(=O)N(C)c4ccc(C(C)C)cc4)c(=O)c23)CC1 -9.98%
Cc1ccc(NCc2cccn2-c2nnc(N3CCC(C(=O)NCc4ccc(OC(C)C)cc4)CC3)s2)cc1 -10.2%
COc1ccc(OC)c(C2CC(=O)c3c([nH]c(C(=O)OC4CCC(C)CC4)c3C)C2)c1 (stereo not given) -4.62%
CN1CCN(CCCNC(=O)Cn2c(-c3cccs3)cc3ccccc32)CC1 -4.46%
Cc1ccc2c(c1)sc1nc(=O)n(-c3ccc(Cl)cc3)c(=O)n12 -19.1%
CCOC(=O)c1noc2ncnc(N(CCC(=O)OC)c3ccccc3)c12 -2.33%
CCOC(=O)c1noc2ncnc(Nc3ccc(C)c(F)c3)c12 -12.5%
Cc1ccc(-c2cc(N)n3nc(-c4ccc(C)cc4)cc3n2)cc1 -4.61%
CC(=O)c1ccc(N2CCN(c3nc4c(S(=O)(=O)c5ccccc5)nnn4c4ccc(Cl)cc34)CC2)cc1 -12.6%
COc1ccc(S(=O)(=O)c2cn(C)c3cc(N4CCCCC4)c(F)cc3c2=O)cc1 -9.33%
Cc1c(-c2nsc(NC(=O)c3ccc(Cl)cc3)n2)nnn1-c1ccc(C(C)C)cc1 -24.1%
COc1ccc(N2CCN(CCCNC(=O)C3COc4ccc(OC)cc4C3)CC2)cc1 (stereo not given) -6.13%
COc1ccc2c(CNCc3ccc(Cl)cc3)c(C(=O)O)n(Cc3ccccc3C)c2c1 -18.3%
CCc1cccc2c(-c3ccccc3)nc(SCC(=O)Nc3ccccc3)nc12 -15%
O=C(Cn1cc(SCc2ccc(C(F)(F)F)cc2)c2ccccc21)N1CCCCC1 -15.4%
CC(CC(=O)NCc1ccc(Cl)cc1)CC1=NS(=O)(=O)c2ccccc2N1 (stereo not given) -18.3%
COc1ccc(-c2cc(C)no2)cc1S(=O)(=O)NCc1ccc(OC(C)C)cc1 0.951%
Cc1cccc2nc(-c3cccnc3)c(Nc3ccc(C(C)C)cc3)n12 -27.8%
Cc1cc(C)cc(NC(=O)CSc2nccn2-c2ccccc2)c1 -18.2%
O=C(NC1CC(=O)N(c2ccccc2)C1)C1CCCCC1 (stereo not given) -12.8%
Cc1cc(Br)ccc1NC(=O)c1cc2c(=O)n(C)c3cc(Cl)ccc3c2s1 -18.6%
Cc1cccc(NC(=O)C2CCN(S(=O)(=O)c3cccc4nsnc34)CC2)c1C -6.72%
COc1ccc(NC(=O)C2=C(C)Nc3nc(SCc4ccccc4C)nn3C2c2ccc(Br)cc2)cc1 (stereo not given) -11.5%
Cc1cc(C)c2oc(C(=O)N(Cc3ccc(F)cc3)C3CCS(=O)(=O)C3)cc(=O)c2c1 (stereo not given) -14.1%
CSc1ccc(CCNc2ncnc3onc(C)c23)cc1 9.9%
COc1ccc(S(=O)(=O)N2CCC(c3ccncc3)CC2)cc1Cl -37.3%
CN(C(=O)c1cc(-c2ccccc2O)on1)c1ccccc1 -13.3%
CCCCOc1c(Cl)cc(C(=O)N(Cc2ccc(C)o2)C2CCS(=O)(=O)C2)cc1Cl (stereo not given) -10.6%
COc1ccc(C(CNC(=O)COc2ccc(C)cc2)N2CCCCC2)cc1 (stereo not given) -29.5%
CN(C(=O)Cn1c(=O)n(CCCS(=O)(=O)C2CCCCC2)c(=O)c2ccccc21)c1ccccc1 -9.45%
COc1ccccc1NC(=O)c1c(NCc2sccc2C)sc2c1CCCCC2 -19.7%
CCOC(=O)c1c(C)oc2ccc(N(C(=O)Oc3ccccc3)S(=O)(=O)c3ccccc3)cc12 -5.03%
CCN1CCN(C(c2ccc(OC)cc2)c2c(O)cc(C)n(CCOC)c2=O)CC1 (stereo not given) -11.9%
CCOc1ccc(/C=C(\C#N)c2nc(-c3cc4ccccc4oc3=O)cs2)c(OCC)c1 1.22%
CCOc1cc(-c2nc(-c3ccc(-c4ccc(C)cc4)nc3OC)no2)cc(OCC)c1OCC -12.7%
COc1ccc(C2C=C(c3ccccc3)Nc3nc(NC(=O)c4ccc(C)cc4)nn32)cc1 (stereo not given) -8.91%
COc1ccc(Cl)cc1NC(=O)Cn1c2ncccc2c(=O)n1-c1ccc(C)c(C)c1 -18%
Cc1cc(C)cc(N(CC(=O)Nc2cccc(C)c2C)S(=O)(=O)c2c(C)[nH]c(=O)[nH]c2=O)c1 -8.78%
COc1ccc2c(CNCc3ccc(C)o3)c(C(=O)O)n(Cc3ccccc3)c2c1 3.77%
Cc1cc(NS(=O)(=O)c2ccc(NC(=O)COc3ccc(Cl)cc3)cc2)nc(C)n1 -16.4%
Cc1ccc(NC(=O)Nc2nnc(N(C)Cc3ccccc3)s2)cc1 -11.8%
COC(=O)c1ccc(Cl)cc1NC(=O)N1CC(C)Oc2ccccc21 (stereo not given) -15.9%
Cc1ccc(-n2nc3c(=O)n(CC(=O)Nc4ccccc4F)nc(C)c3c2C)c(C)c1 -1.95%
CCOC(=O)c1ccc(NC(=O)c2cc3cc(C)ccc3n2C)cc1 -10.7%
COC1=C(OC)C(=O)C(CCCCCCCCCCO)=C(C)C1=O -9.46%
Cc1ccc(C)c(NC(=O)CSc2nnc(CNC(=O)c3ccccc3)n2-c2ccccc2)c1 -18.5%
CCOc1ccc(NC(=O)c2ccc(CN3C(=O)C(C)=C(c4ccc(C)cc4)S3(=O)=O)cc2)cc1 -11.1%
CC(=O)Nc1ccc(NC(=O)CCc2c(C)nc3c(c(C)nn3-c3ccc(C)cc3)c2C)cc1 -11.6%
CCN(CC)S(=O)(=O)c1nnc(NC(=O)COc2ccc(C)cc2)s1 5.45%
CC(=O)Nc1ccccc1-c1nc2ccccc2n(C(C)C(=O)Nc2cc(Cl)ccc2C)c1=O (stereo not given) -14.5%
COc1ccc(CN2CCCN(CC(=O)Nc3cc(C)ccc3C)S2(=O)=O)cc1 -15%
CCOC(=O)c1sc(N2C(=O)c3oc4cc(C)c(C)cc4c(=O)c3C2c2ccc(C)cc2)nc1C (stereo not given) -6.32%
O=C(Nc1ccccc1Cl)c1ccc(F)c(S(=O)(=O)NCc2ccc(Cl)c(Cl)c2)c1 -8.9%
CCC(=O)Nc1ccccc1-c1nc2ccccc2n(Cc2cccc(Br)c2)c1=O -7.66%
CC(C)n1c(/C=C/[C@@H](O)C[C@@H](O)CC(=O)O)c(-c2ccc(F)cc2)c2ccccc21 -0.748%
Cn1c(=O)c2sccc2n2c(CCCC(=O)Nc3ccc(Cl)cc3)nnc12 -11.8%
Cc1ccc(-n2ncc3c(N4CCCCC4)ncnc32)cc1Cl -13.1%
COc1ccc(-c2cc(OC(=O)c3ccccc3C)c3c(C)oc(C)c3c(=O)c2)cc1 -10.4%
CCc1cccc(C)c1NC(=O)c1cc(S(=O)(=O)N(C)Cc2ccccc2)ccc1F -21.2%
CCOC(=O)c1c(C)oc2nc(C)nc(Nc3cc(C)cc(C)c3)c12 -12.4%
CCc1ccc2oc(C(=O)NCC(c3ccc(Cl)cc3)N3CCOCC3)c(C)c2c1 (stereo not given) -12.2%
CC(=O)N1CCCc2cc(S(=O)(=O)N(CCN(C)C)Cc3ccccc3)ccc21 -15.2%
Cc1csc2nc(COC(=O)c3ccc(F)cc3)cc(=O)n12 -28.2%
O=C(CSc1nc2ccccc2n1Cc1ccc(F)cc1)N1CCN(c2ccc(F)cc2)CC1 -5.72%
COc1ccc(CNC(=O)CSCc2nc(-c3ccccc3F)oc2C)cc1 -13.6%
Cc1nnc(N2CCC(C(=O)NCCc3ccccc3)CC2)c2nn(-c3ccccc3)c(C)c12 -14.1%
O=C(Nc1ccc(OCc2cc(=O)n3ccsc3n2)cc1)c1ccc(F)cc1 0.243%
CCc1ccc(-c2nc(CN3CCC(C(=O)NCCc4ccc(C)cc4)CC3)c(C)o2)cc1 -9.16%
Cc1cccc(N(CC(=O)NCc2ccccc2)S(C)(=O)=O)c1C -11.7%
